# Screen size: about 410,000 compounds; about 310 (0.076%) were called active. Inconclusive results, whose numbers are uncertain, are shown with a selection of clear calls. Calls follow the shape of the dose curve; as a rule, active = well fitted curve in the direction sought with a large enough effect; inconclusive = small, poorly fitted or top-dose-only effect; inactive = flat fitted curve, though single readings scatter. A potency beside an inconclusive call is a rough fit, not a confirmed value.
# Target: DNA dC->dU-editing enzyme APOBEC-3G (Homo sapiens) (UniProt Q9HC16)
# Assay: qHTS for Inhibitors of Vif-A3G Interactions: qHTS; also: nearly all actives have a fitted effect of over 60% in size;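 as to activity, negative = active: hits raise eYFP signal because A3G escapes Vif-driven loss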
# Conditions: HeLa A3G-eYFP + Vif (tagged APOBEC3G with the HIV-1 protein that degrades it), YFP fluorescence, overnight; series mostly up to 46.1 µM; activity, negative = active: at the top concentration
# Summary of the method: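 HeLa cells stably expressing Vif and C-terminally eYFP-tagged A3G, seeded overnight at 37 deg C, then exposed to compound by pintool overnight at 37 deg C. Rise in yellow fluorescence (Ex 488/Em 500-530, Acumen) marks blocked Vif-driven A3G degradation.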
# % is scaled to controls: 0 for no effect and ±100 for the full control effect; potency is read from the fitted curve at half-maximal effect; tags tell the direction and shape of the fitted curve.
# Chain of UniProt Q9HC16 (Q9HC16 whole entry, looked up): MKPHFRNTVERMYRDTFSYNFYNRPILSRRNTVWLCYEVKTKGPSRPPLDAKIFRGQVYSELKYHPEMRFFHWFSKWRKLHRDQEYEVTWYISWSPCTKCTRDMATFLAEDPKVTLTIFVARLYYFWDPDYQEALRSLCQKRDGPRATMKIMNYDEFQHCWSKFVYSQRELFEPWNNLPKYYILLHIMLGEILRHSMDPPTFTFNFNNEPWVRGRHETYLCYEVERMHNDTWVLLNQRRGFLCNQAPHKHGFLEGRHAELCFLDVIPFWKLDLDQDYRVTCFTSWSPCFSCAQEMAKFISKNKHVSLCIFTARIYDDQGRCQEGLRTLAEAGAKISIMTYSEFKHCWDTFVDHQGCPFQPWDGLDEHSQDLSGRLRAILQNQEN
Structure (SMILES),"activity, negative = active",Potency
Cc1ccc(S(=O)(=O)c2c(Nc3cc(F)ccc3F)sc(C(=O)c3ccc(F)cc3)c2N)cc1,inactive: 0.0149%,
COc1cc2c(cc1O)CC[C@@H]1[C@@H]2CC[C@]2(C)[C@@H](O)CC[C@@H]12,,"inconclusive: 1.41 µM [inhibitor, full curve, poor fit]"
CCOC(=O)N(C)c1c(CC)nc2c(OCc3ccc(C(F)(F)F)cc3)cccn12,inactive: -0.778%,
CCOCCSc1nc2c(c(=O)[nH]c(=O)n2C)n1CCCc1ccccc1,inactive: -0.426%,
C=CCc1cc(Cl)ccc1OCCNCCOC,inactive: 0.479%,
Cc1cc(N2CCCC2)ccc1NC(=O)COc1ccccc1,inactive: -3.32%,
O=C1Nc2ccccc2/C1=C\C(=O)c1ccccc1,,"inconclusive: 22.4 µM [inhibitor, single point]"
CCn1nc(C)c2c(-c3ccccc3)cc(=O)n(C(C)C(=O)Nc3ccc(OC)c(OC)c3)c21 (stereo not given),inactive: -1.34%,
CC1(C)C2CCC(C2)C1(C)NC(=O)CN1CCN(Cc2ccccc2)CC1 (stereo not given),inactive: -5.16%,
COC(=O)C1=C(C)N(CCc2ccccc2)C(=O)C1(NS(=O)(=O)c1ccc(NC(C)=O)cc1)C(F)(F)F (stereo not given),inactive: -0.0676%,
COc1cc(NC(=O)Cn2nc(-c3ccc(F)cc3)ccc2=O)ccc1-n1cnnn1,,"inconclusive: 35.5 µM [inhibitor, single point]"
O=C(CCl)Nc1ccc(N2CCCCCC2)cc1,,"inconclusive: 35.5 µM [inhibitor, single point]"
Cc1ccc2[nH]c3c(c2c1)CN(C(=O)CN1CC(C)OC(C)C1)CC3 (stereo not given),,"inconclusive: 11.2 µM [inhibitor, partial curve]"
CC(=O)OCC1OC(OC(C)=O)C(NC(=O)Cc2ccccc2)C(OC(C)=O)C1OC(C)=O (stereo not given),inactive: -3.81%,
CCCC1CCc2c(sc(NC(=O)OCC)c2C#N)C1 (stereo not given),,"inconclusive: 5.62 µM [inhibitor, full curve, poor fit]"
CCOc1cc(C)nc(NCc2ccccc2)n1,,"inconclusive: 8.91 µM [inhibitor, partial curve, poor fit]"
Cc1ccc(C)c(NC(=O)c2ccccc2NS(=O)(=O)c2cc([N+](=O)[O-])ccc2C)c1,inactive: 7.38%,
Cc1ccccc1NC(=O)/C=C/c1ccc([N+](=O)[O-])s1,,active: 6.31 µM

Structure (SMILES),"activity, negative = active",Potency
COc1ccc(-c2cc(C)no2)cc1S(=O)(=O)NCc1cccc(C)c1,,"inconclusive: 12.6 µM [inhibitor, partial curve, poor fit]"
Cc1ccc(CNC(=O)Cc2ccc(-c3ccccc3)cc2)cc1,,"inconclusive: 0.631 µM [inhibitor, full curve, poor fit]"
COc1ccccc1/C=C/C1(C(=O)NC2CCCC2)CC(=O)N1c1ccccc1 (stereo not given),,"inconclusive: 3.98 µM [inhibitor, full curve]"
CC(C)C1C(=O)N(Cc2cn(CCC3OCCCO3)nn2)CCS(=O)(=O)N1Cc1ccc(-c2ccc(Cl)c(Cl)c2)cc1 (stereo not given),inactive: -15%,
CCN(Cc1nc2cc(OC)c(OC)cc2c(=O)[nH]1)C(=O)c1ccc(S(=O)(=O)N(C)C)cc1,inactive: -18.2%,
CC(C)N=c1scc(-c2cccs2)n1/N=C/c1ccc(O)c(O)c1O,inactive: -18.3%,
COc1ccc(/C=N/NC(=O)c2csc(-n3nc(C)cc3C(F)(F)F)n2)cc1,,"inconclusive: 3.55 µM [inhibitor, full curve, poor fit]"
COc1ccc(C2c3c(ncn(Cc4ccco4)c3=N)Oc3ccc4ccccc4c32)cc1 (stereo not given),inactive: -7.1%,
COc1ccc(-c2cc(NC=O)c3ncc(-c4cnn(C)c4)n3c2)cc1,,"inconclusive: 22.4 µM [inhibitor, single point]"
Cc1[nH]nc2c1C(Cc1ccccc1)C(C#N)=C(N)O2 (stereo not given),inactive: -5.73%,
COc1cccc(CN2C(=O)c3cccc(N)c3C2=O)c1,inactive: 0.758%,
COc1cc(OC)c(/C=C2\SC(=O)N(CC(=O)Nc3ccccc3F)C2=O)c(OC)c1,,"inconclusive: 7.08 µM [inhibitor, partial curve, poor fit]"
CSc1nnc(C)c(/C=C/NOCc2ccc(Cl)cc2)n1,inactive: 0.0886%,
CC(=O)c1c(C)[nH]c(C(=O)Nc2nccs2)c1C,,"inconclusive: 11.2 µM [inhibitor, single point]"
O=C(O)C1Nc2ccc(Br)cc2C2C=CCC12 (stereo not given),inactive: 2.61%,
COc1cc(NS(=O)(=O)c2ccc(OC)c(C)c2C)c(OC)cc1Cl,,"inconclusive: 1.78 µM [inhibitor, partial curve, poor fit]"
CCn1nc(C)cc1C(=O)OCC(=O)c1ccc(Cl)cc1,inactive: 3.87%,

# — PubChem BioAssay AID602310 (National Center for Advancing Translational Sciences (NCATS), 2012)
